About 16,000 (7.3%) of roughly 220,000 compounds were called active. This list was built around the results that the source calls inconclusive (neither active nor inactive); the mix of calls is not that of the screen. Calls come from the whole dose curve; as a rule, active = well fitted inhibition curve with a large enough effect (not every such curve was filed as active); inconclusive = small, poorly fitted or top-dose-only effect, or another doubt; inactive = no such curve, though single readings can be large or run the other way. No potency is given beside an inconclusive call; the fits are too rough.
The molecules below were run against Aldehyde dehydrogenase 1A1 (Homo sapiens) (UniProt P00352) (assay: qHTS Assay for Inhibitors of Aldehyde Dehydrogenase 1 (ALDH1A1)). Details: Purified ALDH1A1, NADH fluorescence, propionaldehyde substrate; series mostly up to 75.3 µM.
Potency is the fitted concentration of half-maximal effect; tags give direction and shape of the fitted curve.

Chain of UniProt P00352 (P00352 whole entry, looked up): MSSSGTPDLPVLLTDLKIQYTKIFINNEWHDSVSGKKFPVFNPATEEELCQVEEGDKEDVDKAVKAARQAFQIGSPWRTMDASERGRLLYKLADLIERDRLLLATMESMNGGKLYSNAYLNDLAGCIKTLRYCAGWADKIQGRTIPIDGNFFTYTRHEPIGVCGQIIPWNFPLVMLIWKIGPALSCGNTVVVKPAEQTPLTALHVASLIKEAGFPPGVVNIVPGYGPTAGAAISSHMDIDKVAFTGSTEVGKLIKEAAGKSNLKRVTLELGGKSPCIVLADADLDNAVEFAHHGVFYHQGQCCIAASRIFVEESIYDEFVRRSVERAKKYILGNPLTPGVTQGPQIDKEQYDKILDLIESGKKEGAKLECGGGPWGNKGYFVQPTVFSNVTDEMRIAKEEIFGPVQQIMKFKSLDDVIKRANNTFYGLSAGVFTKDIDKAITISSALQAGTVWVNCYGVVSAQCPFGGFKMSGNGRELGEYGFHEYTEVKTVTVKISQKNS

Row | SMILES | Potency
1 | O=C(CN1C(=O)c2cccc3cccc(c23)C1=O)N1CCCCC1 | inconclusive [inhibitor, partial curve]
2 | COc1ccc(-c2nnc3sc(C(C)N4C(=O)c5ccccc5C4=O)nn23)cc1 (stereo not given) | inactive
3 | Cc1cccc(CNc2cc(-c3cccnc3)ncn2)c1 | inconclusive [inhibitor, single point]
4 | CNCC(C)COc1ccccc1OCc1ccccc1 (stereo not given) | inconclusive [inhibitor, partial curve]
5 | CCOc1ccc2[nH]c(=O)c(CN(CCO)C(=O)c3ccccc3F)cc2c1 | inconclusive [inhibitor, single point]
6 | N#CC1=C(S)N(c2ccccc2)C(c2ccc(-c3cccc(Cl)c3)o2)NC1=O (stereo not given) | inconclusive [inhibitor, single point]
7 | N=c1ccn(Cc2cccc(Cl)c2)cc1 | inconclusive [inhibitor, single point]
8 | COc1ccc(S(=O)(=O)CCC(=O)NCCc2ccc(C)cc2)cc1 | active: 25.1 µM
9 | CC[n+]1c(C)n(-c2ccccc2)c2ccc(NC(C)=O)cc21 | inconclusive [inhibitor, single point]
10 | Cc1ccc(NN2C(=O)C=C(c3ccc(Cl)cc3)C2=O)cc1 | inactive
11 | Cc1cc(=O)oc2cc(OC(C)C(=O)Nc3nccs3)ccc12 (stereo not given) | inconclusive [inhibitor, single point]
12 | O=C(NCCCCO)c1ccc2c3c(cccc13)CC2 | inconclusive [inhibitor, partial curve]
13 | Cc1ccnc(Sc2ccc([N+](=O)[O-])cc2[N+](=O)[O-])n1 | inconclusive [inhibitor, single point]
14 | O=C(Cc1ccc(F)cc1)N/N=C/c1ccc2c(c1)OCO2 | inactive
15 | N#Cc1cc([N+](=O)[O-])ccc1NC(=O)COC(=O)CCC1CCCCC1 | inconclusive [inhibitor, partial curve]
16 | COc1ccc(-n2c(CCc3ccccc3)nnc2SCC(=O)NCc2ccccc2)cc1 | inconclusive [inhibitor, partial curve]
17 | COc1cc2oc(=O)cc(-c3ccc(-c4ccc(NC(C)=O)cc4)cc3)c2c(OC)c1OC | inconclusive [inhibitor, partial curve]
18 | O=c1cnc2cnc(Oc3ccccc3)nc2n1Cc1cccs1 | inconclusive [inhibitor, single point]
19 | c1ccc(Nc2ccc3c4c(cccc24)CC3)cc1 | inconclusive [inhibitor, partial curve]
20 | COc1ccc(-c2cn(-c3cccc(C)c3)c(=O)[nH]2)cc1OC | inconclusive [inhibitor, single point]
21 | CCCCC(=O)NC(=S)Nc1c(C)cc(Br)cc1C | active: 11.2 µM
22 | Cc1cccc(-c2nc(=S)c3c(n2Cc2ccco2)CCCC3)c1 | inconclusive [inhibitor, single point]
23 | CCCN1CCC(NC(=O)Nc2ccc(Br)cc2)CC1 | inactive
24 | CC(=O)Cc1nsc(NC(=O)c2ccco2)n1 | inconclusive [inhibitor, single point]
25 | CCOC(=O)C1=NN(c2ccc([N+](=O)[O-])cc2)CC1C(=O)OC (stereo not given) | active: 1.12 µM

Row | SMILES | Potency
26 | CCN(CC)S(=O)(=O)c1ccc(/C=C/C(=O)Nc2ccc(F)c(F)c2F)cc1 | inconclusive [inhibitor, single point]
27 | CS(=O)(=O)N1CCN(c2ccccc2NC(=O)c2ccc3ccccc3c2)CC1 | inconclusive [inhibitor, single point]
28 | c1ccc2c(Cn3nnc4ccccc43)cccc2c1 | inconclusive [inhibitor, single point]
29 | CN1CCN(C2=CC(=O)OC23CCCCC3)CC1 | inactive
30 | CCOC(=O)C1(CCc2ccccc2)CCN(C(=O)C(C)n2cncn2)CC1 (stereo not given) | inconclusive [inhibitor, single point]
31 | O=C(O)Cc1ccc(-n2cccc2)cc1 | inactive
32 | O=C(C1=C(O)C(=O)N(CCCN2CCOCC2)C1c1ccncc1)c1cc2ccccc2o1 (stereo not given) | active: 14.1 µM
33 | CC(C)(C)n1nnnc1C(c1cccnc1)N1CCOCC1 (stereo not given) | inactive
34 | CCOC(=O)c1ccc(NC(=O)CC2OCCN(CC)C2=O)cc1 (stereo not given) | active: 1.78 µM
35 | Cc1ccc(Cl)cc1N1CCN(C(=O)CSc2ccsc2[N+](=O)[O-])CC1 | inconclusive [inhibitor, single point]
36 | O=C(CC1C(=O)NCCN1C(=O)Nc1ccccc1)Nc1ccc(F)cc1 (stereo not given) | inactive
37 | COc1cc(NC(C)=O)c2ncccc2c1[N+](=O)[O-] | inactive
38 | Cc1ccc(C2Nc3cccc4cccc(c34)N2)s1 | inconclusive [inhibitor, single point]
39 | CN(c1ccc(OCC(=O)OCC(=O)NCc2ccco2)cc1)S(=O)(=O)c1ccc2ccccc2c1 | inconclusive [inhibitor, single point]
40 | COc1cccc(C(=O)Nc2cccc(C(=O)NC3=NN(c4c(Cl)cc(Cl)cc4Cl)C(=O)C3)c2)c1 | inactive
41 | Cc1cccc(OCCNC(=O)c2cncc(Br)c2)c1 | inconclusive [inhibitor, single point]
42 | Cn1cccc1C(=O)N1CCC2(CC1)CN(c1ccncc1)C2 | inactive
43 | O=C(Nc1cccc(C(F)(F)F)c1)c1cccnc1N1CCN(CCO)CC1 | inactive
44 | CCOC(=O)N1CCC(NC(=O)c2csc3c2CCCC3)CC1 | inconclusive [inhibitor, partial curve]
45 | Cc1ccc(NC(=O)CN2C(=O)N/C(=C/c3ccco3)C2=O)cc1 | active: 25.1 µM
46 | O=C(CCSCc1ccccc1F)N1CCN(c2ccccn2)CC1 | inconclusive [inhibitor, single point]
47 | O=C(O)c1cn[nH]c1-c1cccc([N+](=O)[O-])c1 | inactive
48 | O=S(=O)(Cc1cc(NCc2ccccc2)nc(-c2ccccn2)n1)c1ccccc1 | inactive
49 | Cc1ccc(NC(=O)c2cc(NC(=O)C3CC=CCC3C(=O)O)ccc2N2CCOCC2)cc1Cl (stereo not given) | active: 1.78 µM
50 | CCONC(=O)Nc1ccccc1[N+](=O)[O-] | inactive

Row | SMILES | Potency
51 | COC(=O)c1ccc(C2N=C(c3cccs3)CC(c3ccccc3O)N2)cc1 (stereo not given) | inconclusive [inhibitor, single point]
52 | COC(=O)c1ccc(N2C(=O)CC(Sc3n[nH]c(C)n3)C2=O)cc1 (stereo not given) | active: 0.562 µM
53 | CC(C)Cc1ccc(S(=O)(=O)N2CCN(C(=O)c3ccco3)CC2)cc1 | inconclusive [inhibitor, partial curve]
54 | COC(=O)c1cc(-c2ccccc2)sc1N | inconclusive [inhibitor, single point]
55 | O=C(CN1CCN(C(=S)NC2CCCC2)CC1)Nc1ccc(Oc2ccccc2)cc1 | inconclusive [inhibitor, full curve, poor fit]
56 | O=c1[nH]c(CSc2nc(-c3ccccc3)cs2)nc2ccccc12 | inconclusive [inhibitor, single point]
57 | Cc1cc2nc(C)c(Cl)c(=O)n2[nH]1 | inconclusive [inhibitor, single point]
58 | CCn1c(SCc2ccc(Cl)cc2)nc2nc3c(cc2c1=O)CCCC3 | active: 12.6 µM
59 | COc1ccc(NC(=S)Nc2ccc(OCc3ccccc3)cc2)cc1OC | active: 17.8 µM
60 | O=C(Nc1ccc2c(c1)OCO2)NC1(C(F)(F)F)Oc2ccccc2O1 | inconclusive [inhibitor, single point]
61 | COc1ccc(CCC(C)Nc2ccc(F)cc2)cc1 (stereo not given) | inactive
62 | Cc1onc(-c2c(Cl)cccc2Cl)c1C(=O)n1nnc2ccccc21 | inactive
63 | C/C(O)=C(/C#N)c1nc2ccccc2[nH]1 | inactive
64 | COc1ccc(S(=O)(=O)Nc2ccc(S(=O)(=O)N3CCOCC3)cc2)cc1C | inconclusive [inhibitor, single point]
65 | COc1cccc(-c2cc(NCCc3c[nH]c4ccc(OC)cc34)ncn2)c1 | inconclusive [inhibitor, single point]
66 | COc1ccc(Cc2nc3ccccc3n2CC(=O)N/N=C/c2ccc(C)cc2O)cc1OC | inactive
67 | CCCS(=O)(=O)N1CCC(C(=O)NC2CCCC(C)C2C)CC1 (stereo not given) | inactive
68 | CC(=O)c1cccc(NC(=O)CN2C(=S)NC(C)(C)CC2C)c1 (stereo not given) | inconclusive [inhibitor, single point]
69 | CCOC(=O)C1=C(c2ccccc2)OC(N)=C(C#N)C1c1cccs1 (stereo not given) | inconclusive [inhibitor, single point]
70 | COc1cccc(NC(=O)N(CCCN2CCOCC2)C(C)c2cc3ccccc3o2)c1 (stereo not given) | inactive
71 | N#C/C(=C/c1cccc([N+](=O)[O-])c1)c1nnc2n1CCCCC2 | active: 20 µM
72 | Cc1cc(NC(=O)c2ccc(C#N)cc2)on1 | inconclusive [inhibitor, single point]
73 | O=[N+]([O-])C1=CC=C2C(=NC3(CCCCC3)N2O)C1=NC1CCCCC1 | inconclusive [inhibitor, full curve]
74 | Oc1ccc(Br)cc1-c1nc2cnccn2c1NC1CCCCC1 | inconclusive [inhibitor, single point]
75 | Cc1cc(C)c2nc(N3CCCN(C(=O)c4ccco4)CC3)c(C#N)cc2c1 | inconclusive [inhibitor, partial curve]
